We go through 86 sequences from the supplement of paper PMC3334620.

Whole data set: some 33,000 sequences, median “E-score (-0.5 to 0.5)” near -0.01, cut for the highest 2% near 0.26. Some of the results follow.

The test addresses Ste12 (UniProt P13574). Briefly: PBM E-score (8-mer binding enrichment) (E-score (-0.5 to 0.5)); higher = stronger / more preferred TF binding; most listed sequences are background and not binding sites. As to conditions: protein concentration: 200 nM; construct: GST-DNA-binding domain. The gist of the method:
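Universal all-10-mer Agilent arrays, double-stranded by primer extension on fresh or once-stripped slides, were probed with about 100-200 nM GST-tagged yeast transcription factors made by PURExpress. Fluorescent anti-GST detected bound protein, and masliner normalised the scans. E-scores from the Universal PBM Analysis Suite were given to each ungapped eight-base word pooled with its reverse complement.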
Take CTTAAAGA: the “PBM E-score” value turned out to be 0.0344.
Then CATAACAG, with -0.162.
With AGGAACGG the figure was 0.0512; with ATTAACAC, 0.186; with CTTTGGTA, -0.22.
For GCCCACCA, the “PBM E-score” value was -0.0497.
With CCCAAGCG the figure was -0.184; with AACTTGTA, -0.0176; with ATACCTAT, 0.121.
Then ATAGAGGG, with -0.0393; and ACTTCTCC, with -0.213; and GCGAGTGA, with 0.08.
Consider AACATCAA, for which the “PBM E-score” value amounted to 0.247.
Then ACTAAGAT, with 0.0816; and TGGTAAAA, with 0.154; and CGTAGGTC, with -0.211.
CGTCTCAC: the “PBM E-score” value amounted to 0.222.
Regarding AATGCAAG, the “PBM E-score” value came out at 0.122.
Then CAATCCGC, with 0.0698; and CGAGAGAC, with -0.0697; and ATATATTG, with 0.153.
Then GAGCTGAA, with -0.0532; and ATTGGGCG, with -0.00653.
Then AATCACGC, with -0.093.
For CTATTTAC, the “PBM E-score” value came out at 0.00668.
With TCCCGCCA the figure was 0.101.
Then GGCTTATA, with -0.0311; and ACCGAGTA, with -0.192; and TATTGCGA, with 0.253.
With CTGGTATA the figure was -0.144; with ATGCTTAA, 0.0449; with CATCACGC, -0.119.
In the case of AAGCTACA, the “PBM E-score” value was -0.223.
Then AAGATTAA, with 0.11.
GAAACCTA: the “PBM E-score” value came out at 0.148.
Then GACCCTTA, with -0.128.
Then CATTCCTC, with 0.0999; and GAGTCTGA, with -0.0306; and CATAGACA, with -0.011.
With ATTTGTAC the figure was -0.0801; with TCATGTAA, 0.198.
On to AAATGCGT, for which the “PBM E-score” value came to 0.188.
With AGCGGCCC the figure was -0.196; with ACTACAGT, 0.0382; with CAAGCCTG, -0.0773.
Regarding GCGTTCAC, the “PBM E-score” value was -0.0168.
With ATGTTGCC the figure was -0.0478; with GCCTGTGA, -0.191.
With GTCGTCAC the figure was 0.0775; with ACGGTGAA, 0.186.
With CTAGATCC the figure was -0.0448; with CCTAAACC, -0.0234; with AGCATGCT, -0.0883.
For the sequence CGACACAG, the “PBM E-score” value came out at 0.0279.
On to CCCAACAA, for which the “PBM E-score” value was determined as 0.0796.
Then ATTATTAG, with 0.031.
For the sequence GGTCTCAA, the “PBM E-score” value stood at 0.0399.
Then CTACGTTA, with -0.0941; and GTTGTTCA, with -0.0893.
Then TAGTACTA, with 0.0943.
Consider GAATTAAA, for which the “PBM E-score” value was 0.287.
With ACCGCCGG the figure was 0.0778; with ATTAGGTC, 0.243.
For the sequence AGCACTTA, the “PBM E-score” value is -0.0481.
As for CCACGGAG, the “PBM E-score” value was found to be 0.00151.
With AAGCTAAG the figure was -0.193; with TCCAAGAA, -0.0341.
Then CACCCAGG, with -0.0372; and TTCTCAAA, with 0.291; and CCAGTTTC, with 0.234.
Then CTAAACCC, with 0.123.
Regarding AACTACCA, the “PBM E-score” value worked out at 0.105.
Then GGTCGTCA, with -0.0862.
With CACCACGG the figure was -0.252; with AAGCTTAA, 0.184; with GCTCTGCA, -0.2.
Then CACATACA, with 0.0306; and ATTTTGGG, with 0.00909; and CAAACTTA, with 0.276.
Regarding GCTGCAAA, the “PBM E-score” value worked out at 0.136.
Then TTATGAAA, with 0.431.
Then AGCTCGTC, with -0.268; and ACAACTTC, with 0.131; and CGGCCTCA, with 0.0417.
Then GAATTAGA, with 0.152.
As for ACACTTTG, the “PBM E-score” value was 0.0896.
